The nature of the data set: Differential scanning calorimetry (DSC): heat of fusion, thermal events. Type of data set: physicochemical. As to the method: Differential scanning calorimetry analyses were performed on each sample “as is.” Unless otherwise specified, samples were weighed in an aluminum pan, covered with a pierced lid, and then crimped and analyzed from 30-300° C. ramped at 10° C./min.
The DSC data were used to determine the heat of fusion for Forms A, B, D, and F, based on their heats of fusion as measured during conversion from Form C.
On the technique in general: DSC measures the heat that a sample takes up or gives off during a temperature scan.

Entries with a single value are a further part of the results.

Turning to `CC[C@H](C)C(=O)N1CCC(NC(=O)Nc2ccc(OC(F)(F)F)c(F)c2)CC1` [L], the “DSC Thermal Events, Endo: dehydration of bound water/desolvation of pattern L” value reads like this: (first dehydration/desolvation endotherm) 114 °C dehydration of bound water/; (second dehydration/desolvation endotherm) 124 °C dehydration of bound water/.

Source of the values: US20260166021A1, “POLYMORPHIC FORMS OF A SOLUBLE EPOXIDE HYDROLASE INHIBITOR AND FORMULATIONS THEREOF” (EicOsis, LLC, priority 2022, published 2026).
